Experimental data published in the supplement of paper PMC4604168 (melanoma cell lines).
This is one part of the list. Many values rest on one well or one pass, so single values are uncertain.

Columns and labels:
Test in all cases: cell count relative to DMSO control; melanoma cells; higher = more viable cells
Settings in all cases: library dose: standard library concentration; 72 h
[1] = test system: A101D
[2] = test system: A2058
[3] = test system: A375
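Note: cells treated in 1,536-well plates, then fixed and DAPI-stained, with nuclei counted from automated high-throughput microscope images.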

| SMILES | cell count [1] | cell count [2] | cell count [3] |
| --- | --- | --- | --- |
| CN(c1ncccc1CNc1nc(Nc2ccc3c(c2)CC(=O)N3)ncc1C(F)(F)F)S(C)(=O)=O + Nc1cccc2c1CN(C1CCC(=O)NC1=O)C2=O [lenalidomide] (first compound 0.4 µM, partner dose 5 µM) | 79.2% | 79.8% | 91.8% |
| C=C(c1ccc(C(=O)O)cc1)c1cc2c(cc1C)C(C)(C)CCC2(C)C [Bexarotene] + O=C(CCCCCCC(=O)Nc1ccccc1)NO [vorinostat] (first compound 10 µM, partner dose 0.4 µM) | 68% | 72.8% | 87.3% |
| NC1(c2ccc(-c3nc4ccn5c(=O)[nH]nc5c4cc3-c3ccccc3)cc2)CCC1 + COc1cc(Nc2ncc(F)c(Nc3ccc4c(n3)NC(=O)C(C)(C)O4)n2)cc(OC)c1OC [Tamatinib] (first compound 2 µM, partner dose 2 µM) | 36.9% | 56.8% | 101% |
| C=C(c1ccc(C(=O)O)cc1)c1cc2c(cc1C)C(C)(C)CCC2(C)C [Bexarotene] + O=C(O)c1ccc(-c2c[nH]c3ncc(-c4ccccc4)cc23)cc1C1CCCC1 [GSK650394] (first compound 10 µM, partner dose 0.8 µM) | 99.6% | 114% | 79.3% |
| CN(c1ncccc1CNc1nc(Nc2ccc3c(c2)CC(=O)N3)ncc1C(F)(F)F)S(C)(=O)=O + O=C(CCCCCCC(=O)Nc1ccccc1)NO [vorinostat] (first compound 0.4 µM, partner dose 0.4 µM) | 80.8% | 86.5% | 89.1% |
| CCCS(=O)(=O)Nc1ccc(F)c(C(=O)c2c[nH]c3ncc(Cl)cc23)c1F + NC(=O)Nc1cc(-c2cccc(F)c2)sc1C(=O)N[C@H]1CCCNC1 [AZD7762] (first compound 0.4 µM, partner dose 0.1 µM) | 64.2% | 74.1% | 56.8% |
| C=C(c1ccc(C(=O)O)cc1)c1cc2c(cc1C)C(C)(C)CCC2(C)C [Bexarotene] + Nc1ncn([C@H]2C[C@H](O)[C@@H](CO)O2)c(=O)n1 [decitabine] (first compound 10 µM, partner dose 0.5 µM) | 81.7% | 74.8% | 90% |
| NC1(c2ccc(-c3nc4ccn5c(=O)[nH]nc5c4cc3-c3ccccc3)cc2)CCC1 + NCC(=O)Nc1ccc(-n2nc(C(F)(F)F)cc2-c2ccc3c(ccc4ccccc43)c2)cc1 [OSU03012] (first compound 2 µM, partner dose 5 µM) | 50.8% | 97.9% | 43.2% |
| CN(c1ncccc1CNc1nc(Nc2ccc3c(c2)CC(=O)N3)ncc1C(F)(F)F)S(C)(=O)=O + O=C(O)[C@@H]1[O][Sb](=[O])([O][Sb]2(=[O])[O][C@H]([C@H](O)CO)[C@H](O)[C@H](C(=O)O)[O]2)[O][C@H]([C@H](O)CO)[C@@H]1O [stibogluconate] (first compound 0.4 µM, partner dose 10 µM) | 97.1% | 77% | 87% |
| CN(c1ncccc1CNc1nc(Nc2ccc3c(c2)CC(=O)N3)ncc1C(F)(F)F)S(C)(=O)=O + NC1(c2ccc(-c3nc4ccn5c(=O)[nH]nc5c4cc3-c3ccccc3)cc2)CCC1 [MK2206] (first compound 0.4 µM, partner dose 2 µM) | 72.8% | 51.5% | 80.8% |
| NC1(c2ccc(-c3nc4ccn5c(=O)[nH]nc5c4cc3-c3ccccc3)cc2)CCC1 + C=C(c1ccc(C(=O)O)cc1)c1cc2c(cc1C)C(C)(C)CCC2(C)C [Bexarotene] (first compound 2 µM, partner dose 10 µM) | 87.5% | 64.9% | 118% |
| CN(c1ncccc1CNc1nc(Nc2ccc3c(c2)CC(=O)N3)ncc1C(F)(F)F)S(C)(=O)=O + NCC(=O)Nc1ccc(-n2nc(C(F)(F)F)cc2-c2ccc3c(ccc4ccccc43)c2)cc1 [OSU03012] (first compound 0.4 µM, partner dose 5 µM) | 63% | 81.8% | 54.7% |
| CN(c1ncccc1CNc1nc(Nc2ccc3c(c2)CC(=O)N3)ncc1C(F)(F)F)S(C)(=O)=O + Cn1nnc2c(C(N)=O)ncn2c1=O [temozolomide] (first compound 0.4 µM, partner dose 10 µM) | 73.8% | 35.5% | 71.9% |
| C=C(c1ccc(C(=O)O)cc1)c1cc2c(cc1C)C(C)(C)CCC2(C)C [Bexarotene] + CC(C)(C)c1cnc(CSc2cnc(NC(=O)C3CCNCC3)s2)o1 [SNS-032] (first compound 10 µM, partner dose 0.05 µM) | 93.2% | 109% | 82.9% |
| CCCS(=O)(=O)Nc1ccc(F)c(C(=O)c2c[nH]c3ncc(Cl)cc23)c1F + OCc1c[nH]c2ccccc12 [Indole-3-carbinol] (first compound 0.4 µM, partner dose 4 µM) | 77.3% | 124% | 80% |
| CS(=O)(=O)c1ccc(C(=O)Nc2ccc(Cl)c(-c3ccccn3)c2)c(Cl)c1 [vismodegib] + Cn1nnc2c(C(N)=O)ncn2c1=O [temozolomide] (first compound 5 µM, partner dose 10 µM) | 85.6% | 42.8% | 123% |
| CN(c1ncccc1CNc1nc(Nc2ccc3c(c2)CC(=O)N3)ncc1C(F)(F)F)S(C)(=O)=O + Cn1c(Nc2ccc(C(F)(F)F)cc2)nc2cc(Oc3ccnc(-c4ncc(C(F)(F)F)[nH]4)c3)ccc21 [CHIR265] (first compound 0.4 µM, partner dose 0.4 µM) | 54.7% | 56.2% | 75.3% |
| CS(=O)(=O)c1ccc(C(=O)Nc2ccc(Cl)c(-c3ccccn3)c2)c(Cl)c1 [vismodegib] + Cn1cncc1[C@@](N)(c1ccc(Cl)cc1)c1ccc2c(c1)c(-c1cccc(Cl)c1)cc(=O)n2C [tipifarnib] (first compound 5 µM, partner dose 0.05 µM) | 99.1% | 90.7% | 127% |
| CS(=O)(=O)c1ccc(C(=O)Nc2ccc(Cl)c(-c3ccccn3)c2)c(Cl)c1 [vismodegib] + CC1(C)NC(=O)N(c2ccc([N+](=O)[O-])c(C(F)(F)F)c2)C1=O [nilutamide] (first compound 5 µM, partner dose 5 µM) | 145% | 112% | 95.8% |
| CS(=O)(=O)c1ccc(C(=O)Nc2ccc(Cl)c(-c3ccccn3)c2)c(Cl)c1 [vismodegib] + CO[C@H]1C[C@@H]2CC[C@@H](C)[C@@](O)(O2)C(=O)C(=O)N2CCCC[C@H]2C(=O)O[C@H]([C@H](C)C[C@@H]2CC[C@@H](OCCO)[C@H](OC)C2)CC(=O)[C@H](C)/C=C(\C)[C@@H](O)[C@@H](OC)C(=O)[C@H](C)C[C@H](C)/C=C/C=C/C=C/1C [everolimus] (first compound 5 µM, partner dose 0.1 µM) | 80.4% | 78.1% | 110% |
| C=C(c1ccc(C(=O)O)cc1)c1cc2c(cc1C)C(C)(C)CCC2(C)C [Bexarotene] + COc1cc(Nc2ncc(F)c(Nc3ccc4c(n3)NC(=O)C(C)(C)O4)n2)cc(OC)c1OC [Tamatinib] (first compound 10 µM, partner dose 2 µM) | 25.3% | 62.3% | 82.4% |
| CN(c1ncccc1CNc1nc(Nc2ccc3c(c2)CC(=O)N3)ncc1C(F)(F)F)S(C)(=O)=O + CO[C@@H]1[C@H](N(C)C(=O)c2ccccc2)C[C@H]2O[C@]1(C)n1c3ccccc3c3c4c(c5c6ccccc6n2c5c31)C(=O)NC4 [Midostaurin] (first compound 0.4 µM, partner dose 0.4 µM) | 67.2% | 38.5% | 69.2% |
| NC1(c2ccc(-c3nc4ccn5c(=O)[nH]nc5c4cc3-c3ccccc3)cc2)CCC1 + O=C(O)[C@@H]1[O][Sb](=[O])([O][Sb]2(=[O])[O][C@H]([C@H](O)CO)[C@H](O)[C@H](C(=O)O)[O]2)[O][C@H]([C@H](O)CO)[C@@H]1O [stibogluconate] (first compound 2 µM, partner dose 10 µM) | 94.9% | 100% | 133% |
| CCCS(=O)(=O)Nc1ccc(F)c(C(=O)c2c[nH]c3ncc(Cl)cc23)c1F + CN(C)S(=O)(=O)c1ccc2c(c1)/C(=C/c1cc3c([nH]1)CCCC3)C(=O)N2 [SU6656] (first compound 0.4 µM, partner dose 2 µM) | 60.2% | 92.8% | 111% |
